Assay in all cases: co-IP; HA-tagged mouse Zdhhc proteins transfected into 293T ZDHHC5 KO and control cells; lysis in 50 mM Tris-HCl pH 7.4, 150 mM NaCl, 2 mM EDTA, 1% DDM; anti-HA magnetic beads overnight at 4 °C; washes in TBS with 0.5% DDM; blots for endogenous GOLGA7 or ZDHHC9
The target of experiment [1] is T1, Zdhhc19^RNYR (mouse Zdhhc19 with the RNYR motif and flanking residues installed) (mouse) (UniProt Q810M5).
T1 sequence: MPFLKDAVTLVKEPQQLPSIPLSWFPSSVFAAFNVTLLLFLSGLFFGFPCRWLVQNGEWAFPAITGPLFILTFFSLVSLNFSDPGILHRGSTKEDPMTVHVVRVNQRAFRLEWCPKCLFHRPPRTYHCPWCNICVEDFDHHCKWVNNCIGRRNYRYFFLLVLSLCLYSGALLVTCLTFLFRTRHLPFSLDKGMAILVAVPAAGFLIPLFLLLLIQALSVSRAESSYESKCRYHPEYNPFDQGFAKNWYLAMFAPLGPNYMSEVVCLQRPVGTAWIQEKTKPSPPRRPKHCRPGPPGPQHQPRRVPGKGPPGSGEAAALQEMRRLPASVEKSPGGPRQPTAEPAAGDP

Amino acid sequences for entries named in this document (tags omitted). A change or cut given only in a name is not applied to a line headed by its entry. Chains listed by the source or under a name are the forms on record and can include a tag or linker.
UniProt Q8VDZ4: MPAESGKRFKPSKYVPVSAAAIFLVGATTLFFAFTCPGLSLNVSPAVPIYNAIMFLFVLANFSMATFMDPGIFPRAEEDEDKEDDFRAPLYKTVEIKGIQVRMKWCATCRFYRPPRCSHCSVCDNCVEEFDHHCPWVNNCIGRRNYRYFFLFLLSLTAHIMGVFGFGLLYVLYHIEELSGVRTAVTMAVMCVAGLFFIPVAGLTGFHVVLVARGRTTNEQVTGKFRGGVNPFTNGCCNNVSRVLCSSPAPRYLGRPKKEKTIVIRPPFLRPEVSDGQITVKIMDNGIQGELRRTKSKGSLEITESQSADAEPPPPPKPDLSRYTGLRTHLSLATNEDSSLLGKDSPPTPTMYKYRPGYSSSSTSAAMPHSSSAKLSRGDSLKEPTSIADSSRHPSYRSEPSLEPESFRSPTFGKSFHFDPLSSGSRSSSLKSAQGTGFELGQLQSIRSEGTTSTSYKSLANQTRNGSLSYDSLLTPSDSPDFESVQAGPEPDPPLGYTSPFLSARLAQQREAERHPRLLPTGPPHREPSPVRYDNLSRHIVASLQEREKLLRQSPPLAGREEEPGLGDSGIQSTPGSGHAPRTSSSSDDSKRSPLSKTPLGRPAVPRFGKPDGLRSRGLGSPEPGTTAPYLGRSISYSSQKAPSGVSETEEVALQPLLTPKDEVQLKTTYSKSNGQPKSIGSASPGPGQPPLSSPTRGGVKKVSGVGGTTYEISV
HA-Zdhhc5^RNYA (mouse Zdhhc5 Arg147Ala) (Q8VDZ4, form named): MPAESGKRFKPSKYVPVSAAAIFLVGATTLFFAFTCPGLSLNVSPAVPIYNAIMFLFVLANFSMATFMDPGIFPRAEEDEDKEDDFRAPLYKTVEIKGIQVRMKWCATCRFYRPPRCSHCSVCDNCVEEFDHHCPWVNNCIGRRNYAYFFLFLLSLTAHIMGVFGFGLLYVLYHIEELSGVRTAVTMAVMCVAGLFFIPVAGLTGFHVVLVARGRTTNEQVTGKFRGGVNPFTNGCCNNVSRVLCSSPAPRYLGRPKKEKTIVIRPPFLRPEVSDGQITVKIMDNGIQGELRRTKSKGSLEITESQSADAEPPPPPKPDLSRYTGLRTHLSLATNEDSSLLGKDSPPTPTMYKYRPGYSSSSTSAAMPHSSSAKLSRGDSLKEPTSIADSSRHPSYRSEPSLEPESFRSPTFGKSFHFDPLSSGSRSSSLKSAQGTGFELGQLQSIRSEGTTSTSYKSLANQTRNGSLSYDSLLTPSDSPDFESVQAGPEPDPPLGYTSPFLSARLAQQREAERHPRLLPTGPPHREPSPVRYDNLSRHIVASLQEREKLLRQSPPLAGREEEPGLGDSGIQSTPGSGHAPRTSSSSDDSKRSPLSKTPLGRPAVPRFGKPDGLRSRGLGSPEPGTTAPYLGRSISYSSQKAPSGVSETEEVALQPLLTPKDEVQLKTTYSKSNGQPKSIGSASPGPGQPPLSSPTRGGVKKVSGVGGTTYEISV
HA-Zdhhc5^ANAA (mouse Zdhhc5 triple alanine mutant) (Q8VDZ4, form named): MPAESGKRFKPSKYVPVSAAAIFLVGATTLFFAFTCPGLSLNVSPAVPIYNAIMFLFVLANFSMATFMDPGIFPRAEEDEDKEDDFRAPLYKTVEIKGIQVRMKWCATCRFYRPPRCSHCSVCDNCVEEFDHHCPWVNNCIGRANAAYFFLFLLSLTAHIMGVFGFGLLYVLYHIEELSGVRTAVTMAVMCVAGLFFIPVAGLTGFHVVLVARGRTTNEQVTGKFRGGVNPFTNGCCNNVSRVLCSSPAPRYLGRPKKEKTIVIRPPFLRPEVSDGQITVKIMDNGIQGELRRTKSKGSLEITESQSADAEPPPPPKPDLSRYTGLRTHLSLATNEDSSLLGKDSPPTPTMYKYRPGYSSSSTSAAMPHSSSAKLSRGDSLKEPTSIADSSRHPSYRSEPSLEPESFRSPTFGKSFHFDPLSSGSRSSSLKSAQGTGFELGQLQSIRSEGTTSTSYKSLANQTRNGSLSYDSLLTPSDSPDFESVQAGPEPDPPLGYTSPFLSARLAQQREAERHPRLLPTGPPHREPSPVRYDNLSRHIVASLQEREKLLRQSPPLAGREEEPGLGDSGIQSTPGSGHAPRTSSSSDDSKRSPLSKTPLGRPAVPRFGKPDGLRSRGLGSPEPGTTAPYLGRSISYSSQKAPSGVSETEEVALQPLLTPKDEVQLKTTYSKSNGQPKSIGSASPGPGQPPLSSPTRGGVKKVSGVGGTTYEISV
UniProt Q7Z5G4: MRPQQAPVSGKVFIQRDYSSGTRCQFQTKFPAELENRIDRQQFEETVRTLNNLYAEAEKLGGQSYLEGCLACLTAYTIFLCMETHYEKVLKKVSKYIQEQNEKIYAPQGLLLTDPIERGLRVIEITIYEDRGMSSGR

For experiment [2], the target named is T2, HA-tagged mouse Zdhhc25 (mouse) (UniProt Q810M4).
T2 sequence: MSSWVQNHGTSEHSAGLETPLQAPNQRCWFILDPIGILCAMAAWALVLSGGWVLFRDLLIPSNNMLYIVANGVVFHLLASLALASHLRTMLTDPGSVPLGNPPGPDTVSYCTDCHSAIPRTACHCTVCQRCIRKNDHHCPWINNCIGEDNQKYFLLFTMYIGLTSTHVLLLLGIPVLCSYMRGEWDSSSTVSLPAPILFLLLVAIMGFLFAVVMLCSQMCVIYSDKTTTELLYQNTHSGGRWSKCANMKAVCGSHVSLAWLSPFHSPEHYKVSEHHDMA

Experiment [3] addresses T3, HA-tagged mouse Zdhhc1 (mouse) (UniProt Q8R0N9).
T3 sequence: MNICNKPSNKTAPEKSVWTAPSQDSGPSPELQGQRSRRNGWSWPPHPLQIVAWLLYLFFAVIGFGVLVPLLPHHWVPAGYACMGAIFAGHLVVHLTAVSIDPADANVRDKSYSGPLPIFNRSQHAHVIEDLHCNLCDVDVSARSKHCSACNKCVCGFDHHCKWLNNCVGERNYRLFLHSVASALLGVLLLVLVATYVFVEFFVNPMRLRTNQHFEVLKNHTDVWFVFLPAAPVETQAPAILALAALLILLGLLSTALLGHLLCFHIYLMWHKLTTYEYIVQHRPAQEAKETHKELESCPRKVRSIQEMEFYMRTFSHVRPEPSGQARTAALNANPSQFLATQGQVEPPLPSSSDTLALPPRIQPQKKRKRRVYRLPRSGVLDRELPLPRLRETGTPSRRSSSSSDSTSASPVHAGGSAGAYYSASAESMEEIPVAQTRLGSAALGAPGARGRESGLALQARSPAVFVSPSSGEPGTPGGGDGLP

The target in experiment [4] is T4, HA-tagged mouse Zdhhc11 (mouse) (UniProt Q14AK4).
T4 sequence: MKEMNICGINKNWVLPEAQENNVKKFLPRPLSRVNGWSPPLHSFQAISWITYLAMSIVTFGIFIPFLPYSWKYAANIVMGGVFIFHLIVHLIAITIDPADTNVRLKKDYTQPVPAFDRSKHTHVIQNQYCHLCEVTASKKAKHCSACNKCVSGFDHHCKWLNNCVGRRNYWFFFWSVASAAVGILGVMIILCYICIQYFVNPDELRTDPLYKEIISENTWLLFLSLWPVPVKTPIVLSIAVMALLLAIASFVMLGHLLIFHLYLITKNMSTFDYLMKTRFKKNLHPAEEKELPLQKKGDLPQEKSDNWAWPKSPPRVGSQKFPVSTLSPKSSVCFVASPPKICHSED

Experiment [5] concerns the target HA-Zdhhc5^RNYA (mouse Zdhhc5 Arg147Ala) (mouse) (UniProt Q8VDZ4).
Experiment [6] concerns the target T5, HA-tagged mouse Zdhhc21 (mouse) (UniProt Q9D270).
T5 sequence: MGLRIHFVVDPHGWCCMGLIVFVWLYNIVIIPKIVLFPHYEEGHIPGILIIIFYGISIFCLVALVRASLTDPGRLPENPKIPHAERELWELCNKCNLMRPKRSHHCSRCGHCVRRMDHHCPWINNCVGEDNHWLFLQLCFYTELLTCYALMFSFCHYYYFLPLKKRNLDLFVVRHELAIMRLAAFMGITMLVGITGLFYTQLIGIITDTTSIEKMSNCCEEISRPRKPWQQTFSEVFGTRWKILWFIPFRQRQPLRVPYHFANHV

Experiment [7] has as its target HA-Zdhhc5^ANAA (mouse Zdhhc5 triple alanine mutant) (mouse) (UniProt Q8VDZ4).

Results are given in words; binding and its absence hold for the method and conditions named. In cells and extracts the contact can be indirect. Some entries that bind do so weakly or less than the wild type. For some of these results: Tags and fused reporters may be left off the sequences shown.

We go through one substance from PMC12528901.

As to “endogenous human golgin A7 (GOLGA7) (from UniProt Q7Z5G4 1-137)”, the binding result was “no binding” in experiment [1]; “no binding” in experiment [2]; “binds” in experiment [3]; “no binding” in experiment [4]; “no binding” in experiment [5]; “no binding” in experiment [6]. Also, the binding result in experiment [7] was “no binding”.
